# Test results from PubChem BioAssay (Tox21).
# Where “and” joins values, the source holds several entries; their conditions need not be identical. Equal entries are not always repeated. Inconclusive means that the source gave no clear call. Such entries were picked first, then a sample of the others. A potency beside an inconclusive call is a rough fit, not a confirmed value. Calls of active or inactive are those of the source. Calls come from the whole dose curve; as a rule, active = well fitted cell-killing curve with a large enough effect in the repeat runs; inconclusive = weak or mixed curves, or effect the other way; inactive = flat fitted curve, though single readings scatter.
# Experiment: qHTS assay to identify small molecule agonists of the constitutive androstane receptor (CAR) signaling pathway - cell viability counter screen (AID 1224836); note: nearly all actives have a fitted effect of over 45% in size
# Details: HepG2-CYP2B6-hCAR viability, CellTiter-Fluor, 23 h, PK11195 added to every well; series mostly up to 92.4 µM; viability change, negative = cytotoxic: at the top concentration
# Method in brief: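 Double-stable HepG2 hepatoma cells (hCAR plus CYP2B6-2.2kb) are treated for 23 h at 37 C with test compounds in 15-point concentration series. PK11195 at 0.75 uM final is co-added. Cell viability is quantified by CellTiter-Fluor.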
# % is set by controls: 0 for no effect and ±100 for the full control effect; potency is the fitted concentration of half-maximal effect; tags give direction and shape of the fitted curve.
Compound,Potency,"viability change, negative = cytotoxic"
Nc1n[nH]c(N)n1,"inconclusive: 44.1 µM [cytotoxic, partial curve, poor fit]",–
CC(Cl)CCl (configuration not stated),–,inactive: 1.82%
COc1ccc(N)cc1N,"inconclusive: 33 µM [cytotoxic, single point]",–
NC(=S)Nc1ccccc1,"inconclusive: 27.8 µM [cytotoxic, partial curve]",–
Cl/C=C\C[N+]12CN3CN(CN(C3)C1)C2,"inconclusive: 68.6 µM [cytotoxic, partial curve, poor fit]",–
CCCCOC(=O)CCC(=O)OCCCC,–,inactive: -0.304%
CC(C)(C)c1cc([N+](=O)[O-])cc(C(C)(C)C)c1O,active: 19.3 µM,–
CCCCCCCCCCCCCC[P+](CCCCCC)(CCCCCC)CCCCCC (tested in a mixture with another compound),active: 17.2 µM,–
NCc1cccnc1,inactive,–
CC1COC(Cn2cncn2)(c2ccc(Oc3ccc(Cl)cc3)cc2Cl)O1 (configuration not stated),"inconclusive: 30.6 µM [cytotoxic, partial curve]",–
N#CCc1ccccc1,–,inactive: -0.719%
Nc1ccc([N+](=O)[O-])cc1N,"active: 48.5 µM and inconclusive: 30.6 µM [cytotoxic, partial curve]",–
Cc1cc(Cl)ccc1OCC(=O)O,inactive,–
CN(C)c1ccc(N=Nc2ccccc2)cc1,"inconclusive: 61.2 µM [cytotoxic, single point]",–
C=CCC1(C(C)CC)C(=O)NC(=O)NC1=O (configuration not stated),–,inactive: 11.3% [at 42.5 µM]
O=[Se]=O,active: 21.5 µM,–
Cc1ncsc1CCCl,–,inactive: 10.2% [at 42.5 µM]
